# Test results taken from PubChem BioAssay (Tox21).
# Inconclusive results, whose numbers are uncertain, are shown with a selection of clear calls. For some of these results: Potencies of inconclusive entries are left out as doubtful fits. Some compounds were tested as several samples or in several runs, with calls that do not always agree. Activity calls are given as the source filed them. Unless noted, calls follow the shape of the dose curve; as a rule, active = well fitted curve in the direction sought with a large enough effect in the repeat runs; inconclusive = weak or mixed curves; inactive = no such curve, though single readings can be large; an effect the other way counts as inactive or inconclusive.
# Legend:
# [1] = qHTS RealTime-Glo MT Cell Viability Assay in HEK293 cells - 0 hour (AID 1224880); also: nearly all actives have a fitted effect of over 45% in size
# How it was run: (§1)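 600 HEK293 cells per well, dispensed already mixed with RealTime-Glo MT reagents. Compound dosing came 5 h later. The same wells were read for luminescence at 0, 8, 16, 24, 32 and 40 h of exposure at 37 C.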
# [2] = A CellTox Green Cytotoxicity Assay to monitor cytotoxicity in HEK293 cells - 32 hour (AID 1224881); also: nearly all actives have a fitted effect of over 40% in size
# How it was run: (§2)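 Dead-cell fluorescence measured kinetically: asymmetric cyanine dye, HEK293, 600 cells/well, 5 h settle, 23 nL cpd/DMSO, 37 C, reads 0–40 h every 8 h.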
# [3] = qHTS RealTime-Glo MT Cell Viability Assay in HEK293 cells - 24 hour (AID 1224886); also: nearly all actives have a fitted effect of over 50% in size
# How it was run: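 Cells + reagent dispensed (600 cells/well, HEK293) → 5 h at 37 C/5% CO2 → 23 nL compound in DMSO pinned → 40 h at 37 C → luminescence read at 0, 8, 16, 24, 32, 40 h.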
# [4] = qHTS RealTime-Glo MT Cell Viability Assay in HEK293 cells - 8 hour (AID 1224887); also: nearly all actives have a fitted effect of over 50% in size
# How it was run: as §1
# [5] = qHTS RealTime-Glo MT Cell Viability Assay in HepG2 cells - 0 hour (AID 1224889); also: nearly all actives have a fitted effect of over 50% in size
# How it was run: (§3)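 Real-time, nonlytic viability: 600 HepG2 cells/well mixed with NanoLuc enzyme plus prosubstrate; 5 h settle, compound (DMSO) added by pintool; luminescence monitored over 40 h at 37 C.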
# [6] = qHTS assay to identify small molecule phospholipidosis (PLD) inducers (AID 1259344; active = well fitted curve in the direction sought with a large enough effect; inconclusive = small, poorly fitted or top-dose-only effect, or another doubt; inactive = no such curve, though single readings can be large; an effect the other way counts as inactive or inconclusive); details: HepG2 phospholipidosis, LipidTOX Red imaging, 24 h; series mostly up to 38.3 µM
# How it was run: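 Read-out is LipidTOX Red fluorescence (ex 595/em 615) imaged in HepG2 cells after 24 h compound exposure at 37 C, with Hoechst nuclear counterstain (ex 352/em 461) allowing per-cell normalisation.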
# [7] = qHTS RealTime-Glo MT Cell Viability Assay in HepG2 cells - 16 hour (AID 1224885); also: nearly all actives have a fitted effect of over 50% in size
# How it was run: as §3
# [8] = qHTS assay to identify small molecule HDAC inhibitors (AID 1259364);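 also: wild-type HCT-116 cells with endogenous class I/II HDAC activity; nearly all actives have a fitted effect of over 45% in size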
# How it was run: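 Quantitative high-throughput format: overnight-seeded HCT-116 cells got compounds for 2 hr at 37C; HDAC-Glo I/II reagent added, 30 min RT, luminescence measured.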
# [9] = A CellTox Green Cytotoxicity Assay to monitor cytotoxicity in HEK293 cells - 8 hour (AID 1224884); also: nearly all actives have a fitted effect of over 35% in size
# How it was run: as §2
# [10] = A CellTox Green Cytotoxicity Assay to monitor cytotoxicity in HEK293 cells - 16 hour (AID 1224888); also: nearly all actives have a fitted effect of over 35% in size
# How it was run: as §2
# [11] = qHTS assay to identify small molecule antagonists of the androgen receptor (AR) signaling pathway using the MDA cell line in the presence of 0.5 nM R1881 - cell viability counter screen (AID 1259242); also: nearly all actives have a fitted effect of over 45% in size
# How it was run: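 qHTS format. MDA-kb2 (MMTV-luc, AR/GR responsive) + cpd + 0.5 nM R1881 final, 16 hr 37C/0% CO2 → CellTiter-Fluor 30 min → fluorescence intensity.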
# [12] = qHTS assay to identify small molecule agonists of the sonic hedgehog signaling (Shh) pathway - cell viability counter screen (AID 1259366); also: nearly all actives have a fitted effect of over 50% in size
# How it was run: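 Cytotoxicity counter screen run in the same wells as the Shh reporter assay. NIH/3T3 cells carrying a Gli1 response element–driven luciferase were treated with DMSO-dissolved compounds for 24hr, and live-cell protease activity was measured with CellTiter-Fluor.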
# [13] = qHTS assay to identify small molecule antagonists of the sonic hedgehog signaling (Shh) pathway - cell viability counter screen (AID 1259367); also: nearly all actives have a fitted effect of over 55% in size
# How it was run: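 Fluorescence read-out (CellTiter-Fluor, 1 hr at 37C) taken after 23 hr compound treatment of 3T3 Gli1-Luc cells stimulated with conditioned medium. Cells were seeded at 2,000 per well and pre-incubated 4 hr.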
# [14] = A CellTox Green Cytotoxicity Assay to monitor cytotoxicity in HepG2 cells - 32 hour (AID 1224883); also: nearly all actives have a fitted effect of over 50% in size
# How it was run: (§4)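 First, HepG2 cells (600/well) mixed with reagent were plated; second, after 5 h at 37 C they received compounds via pintool; third, fluorescence was measured at 0 h through 40 h at 8 h intervals.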
# [15] = biological target: Androgen receptor (Homo sapiens) (UniProt P10275); test: qHTS assay to identify small molecule antagonists of the androgen receptor (AR) signaling pathway using the MDA cell line in the presence of 0.5 nM R1881 (AID 1259243); also: nearly all actives have a fitted effect of over 50% in size
# How it was run: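 Antagonist mode quantitative HTS in MDA-kb2 MMTV-luciferase cells, agonist R1881 at 0.5 nM final, 16 hr exposure at 37C and 0% CO2, luminescent detection.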
# [16] = biological target: Estrogen receptor (Homo sapiens) (UniProt P03372); test: qHTS assay to identify small molecule antagonists of the estrogen receptor alpha (ER-alpha) signaling pathway using the BG1 cell line in the presence of 0.1 nM 17-beta-estradiol (AID 1259244); also: nearly all actives have a fitted effect of over 50% in size
# How it was run: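 Reporter is a stably transfected luciferase under four estrogen responsive elements in VM7Luc4E2 cells expressing native full-length ER-alpha; inhibition of 0.1 nM (final) 17beta-estradiol-driven signal over 22 h is read by luminescence.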
# [17] = A CellTox Green Cytotoxicity Assay to monitor cytotoxicity in HepG2 cells - 0 hour (AID 1224882); also: nearly all actives have a fitted effect of over 35% in size
# How it was run: as §4
# Potency is read from the fitted curve at half-maximal effect; tags tell the direction and shape of the fitted curve.
# Sequence of UniProt P10275 (P10275 whole entry, looked up): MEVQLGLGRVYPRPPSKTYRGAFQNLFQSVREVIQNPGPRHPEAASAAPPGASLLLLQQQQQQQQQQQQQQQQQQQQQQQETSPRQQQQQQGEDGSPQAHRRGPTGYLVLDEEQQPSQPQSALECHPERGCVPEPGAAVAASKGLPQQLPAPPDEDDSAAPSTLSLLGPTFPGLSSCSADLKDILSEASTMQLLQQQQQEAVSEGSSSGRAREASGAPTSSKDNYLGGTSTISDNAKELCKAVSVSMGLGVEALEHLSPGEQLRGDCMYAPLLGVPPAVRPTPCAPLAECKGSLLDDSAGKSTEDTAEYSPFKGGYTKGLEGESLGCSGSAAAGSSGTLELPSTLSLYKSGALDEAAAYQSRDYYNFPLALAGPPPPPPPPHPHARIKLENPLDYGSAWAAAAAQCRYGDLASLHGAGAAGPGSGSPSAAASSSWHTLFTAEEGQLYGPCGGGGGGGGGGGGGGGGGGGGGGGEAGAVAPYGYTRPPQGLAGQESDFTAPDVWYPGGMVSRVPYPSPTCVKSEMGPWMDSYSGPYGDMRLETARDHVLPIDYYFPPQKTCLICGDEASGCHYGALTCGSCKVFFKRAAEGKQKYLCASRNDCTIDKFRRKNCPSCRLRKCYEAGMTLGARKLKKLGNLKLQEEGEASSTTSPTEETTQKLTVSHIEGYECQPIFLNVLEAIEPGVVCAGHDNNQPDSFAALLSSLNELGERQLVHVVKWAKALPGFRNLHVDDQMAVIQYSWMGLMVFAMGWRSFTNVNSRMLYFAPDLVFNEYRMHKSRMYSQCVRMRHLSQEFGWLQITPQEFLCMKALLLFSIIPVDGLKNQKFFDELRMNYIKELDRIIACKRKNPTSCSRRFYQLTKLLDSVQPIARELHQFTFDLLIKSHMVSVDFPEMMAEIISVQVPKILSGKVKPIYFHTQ
# Sequence of UniProt P03372 (P03372 whole entry, looked up): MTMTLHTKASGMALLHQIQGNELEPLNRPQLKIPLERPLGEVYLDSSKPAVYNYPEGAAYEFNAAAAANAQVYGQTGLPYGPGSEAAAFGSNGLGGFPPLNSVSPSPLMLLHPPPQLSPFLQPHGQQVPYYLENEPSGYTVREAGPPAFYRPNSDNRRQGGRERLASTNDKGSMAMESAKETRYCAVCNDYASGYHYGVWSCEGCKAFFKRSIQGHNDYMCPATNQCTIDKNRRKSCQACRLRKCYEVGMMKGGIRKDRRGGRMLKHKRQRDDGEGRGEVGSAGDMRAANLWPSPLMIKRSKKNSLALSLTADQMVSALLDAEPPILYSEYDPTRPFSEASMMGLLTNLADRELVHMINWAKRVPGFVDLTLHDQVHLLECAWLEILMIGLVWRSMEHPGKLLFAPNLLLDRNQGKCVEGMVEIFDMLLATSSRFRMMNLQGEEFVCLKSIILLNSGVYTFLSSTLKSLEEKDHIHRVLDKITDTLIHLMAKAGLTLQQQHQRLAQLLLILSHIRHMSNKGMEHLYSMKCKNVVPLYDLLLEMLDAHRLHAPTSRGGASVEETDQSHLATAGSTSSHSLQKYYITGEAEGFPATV
smiles,measurement,setting,value
CC(=O)OCC(=O)[C@H]1CC[C@H]2[C@@H]3CCC4=CC(=O)CC[C@]4(C)[C@H]3CC[C@]12C,Potency,[1],active: 9.52 µM
same,Potency,[2],"inconclusive [activator, single point]"
same,Potency,[3],"inconclusive [cytotoxic, single point]"
same,Potency,[4],"inconclusive [cytotoxic, single point]"
same,Potency,[5],active: 3.01 µM
same,Potency,[6],"inconclusive [activator, single point]"
Oc1ccc(Nc2ccccc2)cc1,Potency,[1],"inconclusive [falling, full curve]"
same,Potency,[2],"inconclusive [activator, single point]"
same,Potency,[7],"inconclusive [cytotoxic, partial curve, poor fit]"
same,Potency,[3],active: 21.9 µM
same,Potency,[4],active: 17.4 µM
same,Potency,[5],"inconclusive [cytotoxic, partial curve]"
[O-][N+](=Nc1ccccc1)c1ccccc1,Potency,[1],inactive
same,Potency,[2],"inconclusive [activator, single point]"
same,Potency,[8],active: 9.69 µM
CCN(CC)CC(=O)Nc1c(C)cccc1C,Potency,[1],"inconclusive [falling, single point]"
O=C(O)c1cn(C2CC2)c2cc(Cl)c(F)cc2c1=O,Potency,[1],"inconclusive [rising, single point]"
same,Potency,[2],"inconclusive [activator, single point]"
same,Potency,[9],"inconclusive [activator, single point]"
same,Potency,[3],"inconclusive [rising, single point]"
same,Potency,[4],"inconclusive [rising, single point]"
same,Potency,[10],"inconclusive [activator, single point]"
CNCCCC1c2ccccc2C=Cc2ccccc21,Potency,[1],"inconclusive [rising, partial curve]"
same,Potency,[2],"inconclusive [activator, single point]"
same,Potency,[7],"inconclusive [cytotoxic, partial curve]"
same,Potency,[5],"inconclusive [rising, single point]"
same,Potency,[11],"inconclusive [cytotoxic, single point]"
same,Potency,[6],"inconclusive [activator, single point]"
same,Potency,[12],"inconclusive [cytotoxic, partial curve]"
same,Potency,[13],"inconclusive [cytotoxic, partial curve, poor fit]"
CCOC(=O)CC(=O)c1cc(F)c(Cl)nc1Cl,Potency,[1],"inconclusive [rising, single point]"
same,Potency,[2],"inconclusive [activator, single point]"
same,Potency,[3],"inconclusive [rising, single point]"
same,Potency,[10],"inconclusive [activator, partial curve, poor fit]"
Nc1c[n+](N2CCOCC2)no1,Potency,[1],inactive
O=C1CC2(CCCC2)CC(=O)N1CCNCC1COc2ccccc2O1 (stereo unspecified),Potency,[1],"inconclusive [rising, full curve]"
COc1c2occc2cc2ccc(=O)oc12,Potency,[1],"inconclusive [falling, single point]"
same,Potency,[14],"inconclusive [activator, single point]"
same,Potency,[3],active: 21.9 µM
CSc1ccc(Oc2ccc(S(N)(=O)=O)cc2CN(C)C)cc1C,Potency,[1],"inconclusive [rising, partial curve, poor fit]"
same,Potency,[14],"inconclusive [activator, single point]"
same,Potency,[3],active: 49 µM
same,Potency,[4],"inconclusive [cytotoxic, partial curve]"
same,Potency,[10],"inconclusive [activator, partial curve, poor fit]"
same,Potency,[15],"inconclusive [inhibitor, partial curve]"
same,Potency,[16],active: 68.6 µM
same,Potency,[12],"inconclusive [cytotoxic, partial curve]"
O=C1OC2(c3ccccc31)c1ccc(O)c(Br)c1Oc1c2ccc(O)c1Br,Potency,[1],"inconclusive [falling, partial curve]"
same,Potency,[2],"inconclusive [activator, full curve, poor fit]"
same,Potency,[17],"inconclusive [activator, full curve, poor fit]"
same,Potency,[14],"inconclusive [activator, partial curve, poor fit]"
same,Potency,[9],"inconclusive [activator, partial curve, poor fit]"
same,Potency,[7],"inconclusive [cytotoxic, partial curve, poor fit]"
same,Potency,[3],"inconclusive [cytotoxic, single point]"
same,Potency,[4],"inconclusive [cytotoxic, partial curve]"
same,Potency,[10],active: 21.9 µM
same,Potency,[5],"inconclusive [cytotoxic, single point]"
same,Potency,[11],"inconclusive [cytotoxic, partial curve]"
same,Potency,[15],inactive
same,Potency,[8],inactive
same,Potency,[13],"inconclusive [rising, partial curve]"
